Reference: PubChem BioAssay AID651582 (Sanford-Burnham Center for Chemical Genomics, 2012)
The other results are listed elsewhere or left out. The main result of the screen is listed elsewhere. These columns were measured beside it and carry no call. Compounds called inactive in the main read-out are mostly missing here.

assay: inhibitors of triacylglycerol accumulation, primary screen, cell-based, uHTS, fluorescence, H9c2 (AID 651582); settings: H9c2 cells, Nile Red lipid (TAG) fluorescence; measured here:; at 12.5 µM; cells loaded with 200 µM oleic acid

Row | SMILES | DAPI nuclei signal change (viability), lower = more cytotoxic [%]
1 | CCOC(=O)c1cc(-c2ccccc2)sc1NC(=S)Nc1cccc(C)n1 | -13.9
2 | Cc1ccc(-c2cc(C(F)F)n3ncc(C(=O)N4CCCc5ccccc54)c3n2)cc1 | -20.5
3 | COc1ccc(CC(N)c2csc(NC(=O)c3cc(C(C)(C)C)nn3Cc3ccccc3)n2)cc1 (stereo not given) | -21.6
4 | CCCc1nc2oc3c(NCCN(C)C)ncnc3c2c2c1CCCC2 | -0.747
5 | OC1CC2CCC(C1)N2CCCN1c2ccccc2Sc2ccc(Cl)cc21 (stereo not given) | -48.4
6 | Cc1cc(N2CCN(Cc3cn(C)nc3-c3cccc(Cl)c3)CC2)cc(C)n1 | -40.7
7 | Cc1c(Nc2cc(Cl)c3nonc3c2[N+](=O)[O-])c(=O)n(-c2ccccc2)n1C | 94.6
8 | O=C(c1ccoc1)N1CCN(c2cc(-c3ccccc3)nc3cc(-c4ccc(Br)cc4)nn23)CC1 | 89.8
9 | NNC(=O)CCN1CCCCC1 | -24.8
10 | COc1ccc(CC(=O)Nc2ccc(-c3ccc4nnc(C)n4n3)cc2)cc1OC | -1.26
11 | Cc1ccc(C(=O)NCCN2C3=NC[C@H](C(C)C)N3C[C@H]2Cc2ccc(O)cc2)cc1Br | -30.8
12 | CC(C)(C)NC(=O)C(c1ccc(-c2ccccc2)cc1)N(C[C@H]1CC[C@@H]([C@@H]2CC[C@H](CO)O2)O1)C(=O)c1ccc(-c2ccccc2)cc1 (stereo not given in full) | 7.44
13 | COc1ccc(CNC(=O)c2ccc(N3CCC4(CC3)CC(c3ccc(Cl)cc3)=NO4)c(NC(=O)Cc3ccc(F)cc3)c2)cc1 | -1.82
14 | Cc1cc(C)c2sc(N(CCCN(C)C)C(=O)c3ccc(S(=O)(=O)N4CCCc5ccccc54)cc3)nc2c1 | -40
15 | O=C(Nc1ccc(F)cc1)c1cc(Cl)sc1Cl | -47.8
16 | O=C(CSc1nc2ccc(Nc3nc(N4CCOCC4)nc(N4CCOCC4)n3)cc2s1)Nc1ccccc1Cl | -2.88
17 | O=C(c1ccoc1)N1CCN(c2cc(-c3cccnc3)nc3cc(-c4cccc(Cl)c4)nn23)CC1 | 81.7
18 | CCOc1ccc(CCNC(=O)CN2CCN(Cc3ccccc3C)C2=O)cc1OCC | -13
19 | CCOCCOC(=O)c1[nH]c2c(c1C)C(=O)CC(c1cccs1)C2 (stereo not given) | -46.8
20 | Oc1c(C(c2ccccc2Cl)N2CCCC2)ccc2cccnc12 (stereo not given) | -24.5
21 | COc1cccc(/C=C/C(=C2/C(=O)N(c3ccccc3)N=C2C)c2ccc(C)cc2)c1OC | -2.21
22 | CCCN(CCC)CCNC(=O)c1cc2c(=O)n(CC)c3ccccc3c2s1 | 70.1
23 | C#CCN(C[C@@H]1[C@@H](OC(=O)NCc2ccccc2F)[C@@H](OC(=O)NCc2ccccc2F)Cn2c(=O)ccc(=O)n21)S(=O)(=O)c1ccc(C)cc1 | -45.7
24 | Brc1ccc(-c2csc(NNC3=NCCCCC3)n2)cc1 | -16.5
25 | CCCOc1ccc(F)cc1-c1cc(C(=O)NCc2cc(OC)cc(OC)c2)[nH]n1 | -3.7
